{"source": "the supplement of paper PMC3334620", "note": "The full ranking holds about 33,000 sequences; the median of “E-score (-0.5 to 0.5)” is about -0.01, and the highest 2% start at about 0.26. Some of the results follow."}
{"target": "Ste12 (UniProt P13574)", "assay": "PBM E-score (8-mer binding enrichment) (E-score (-0.5 to 0.5)); higher = stronger / more preferred TF binding; most listed sequences are background and not binding sites", "settings": "protein concentration: 200 nM; construct: GST-DNA-binding domain", "description": "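Universal 'all 10-mer' protein binding microarrays (Agilent AMADID 015681) probed with GST-tagged S. cerevisiae TFs (full-length or DBD) made by in vitro transcription/translation (PURExpress), about 100-200 nM. Bound TF was detected with fluorescent anti-GST. Each ungapped 8-mer (which stands for itself and its reverse complement) is scored by the PBM enrichment score (E-score), a modified Wilcoxon-Mann-Whitney statistic from -0.5 to +0.5, computed with the Universal PBM Analysis Suite. Scale: above 0.35 generally sequence-specific binding.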"}
{"sequence": "GACCCTGC", "PBM E-score": -0.0571}
{"sequence": "AGGGATAA", "PBM E-score": 0.182}
{"sequence": "GCCGCCGA", "PBM E-score": 0.0391}
{"sequence": "ATTCACGA", "PBM E-score": 0.0731}
{"sequence": "CGGTAGGA", "PBM E-score": -0.167}
{"sequence": "ACTAGTCT", "PBM E-score": -0.00065}
{"sequence": "AATGGAGA", "PBM E-score": -0.0154}
{"sequence": "AGGCAAAG", "PBM E-score": -0.0376}
{"sequence": "ATTTGTTG", "PBM E-score": 0.181}
{"sequence": "AAACGGAG", "PBM E-score": 0.0885}
{"sequence": "CAACTTAG", "PBM E-score": 0.106}
{"sequence": "GATTGTAA", "PBM E-score": 0.167}
{"sequence": "ACGACGAG", "PBM E-score": -0.137}
{"sequence": "AAGCTATT", "PBM E-score": -0.103}
{"sequence": "CTGTTATA", "PBM E-score": 0.105}
{"sequence": "CCTGCGTC", "PBM E-score": -0.192}
{"sequence": "AACAAACA", "PBM E-score": 0.269}
{"sequence": "AAATTTAG", "PBM E-score": 0.169}
{"sequence": "GCCAACGA", "PBM E-score": 0.0515}
{"sequence": "CCGGAGCG", "PBM E-score": 0.119}
{"sequence": "CAACGGGC", "PBM E-score": 0.0406}
{"sequence": "GACGGTCC", "PBM E-score": -0.25}
{"sequence": "ACAAGTTG", "PBM E-score": 0.0796}
{"sequence": "GATGTTCA", "PBM E-score": -0.181}
{"sequence": "ATGGGCGC", "PBM E-score": 0.038}
{"sequence": "GGTAAGCA", "PBM E-score": -0.0119}
{"sequence": "ACGGGTTG", "PBM E-score": -0.246}
{"sequence": "AAACCCCT", "PBM E-score": -0.0815}
{"sequence": "ATTAGAAC", "PBM E-score": 0.131}
{"sequence": "ACATGAGA", "PBM E-score": 0.208}
{"sequence": "AGCACGCA", "PBM E-score": -0.187}
{"sequence": "TCTGTTAA", "PBM E-score": 0.0508}
{"sequence": "TGCATCCA", "PBM E-score": -0.0478}
{"sequence": "TCAGGGCA", "PBM E-score": -0.0383}
{"sequence": "ACTACGCT", "PBM E-score": -0.0983}
{"sequence": "GCACACCC", "PBM E-score": -0.0896}
{"sequence": "CTACGCCA", "PBM E-score": -0.235}
{"sequence": "CCGAAGTC", "PBM E-score": -0.149}
{"sequence": "ACGCTAGT", "PBM E-score": 0.0183}
{"sequence": "CGGTGGCC", "PBM E-score": -0.0746}
{"sequence": "AAAAACTG", "PBM E-score": 0.166}
{"sequence": "CGGCAGGA", "PBM E-score": -0.125}
{"sequence": "GAGGCTAA", "PBM E-score": 0.0402}
{"sequence": "CCCGCAAC", "PBM E-score": 0.00366}
{"sequence": "TAGATGAA", "PBM E-score": 0.279}
{"sequence": "CGGAAGAA", "PBM E-score": 0.0583}
{"sequence": "CTACTGCC", "PBM E-score": -0.123}
{"sequence": "GCCCTTGA", "PBM E-score": -0.21}
{"sequence": "CAACCTCA", "PBM E-score": -0.0257}
{"sequence": "TACGAACA", "PBM E-score": -0.0323}
{"sequence": "CAAATTGA", "PBM E-score": 0.0569}
{"sequence": "AAGCCTCT", "PBM E-score": -0.291}
{"sequence": "AAGGTGAG", "PBM E-score": 0.00195}
{"sequence": "AAGCTGCA", "PBM E-score": -0.00781}
{"sequence": "ACGGGCTC", "PBM E-score": -0.242}
{"sequence": "AGGCACAA", "PBM E-score": 0.0987}
{"sequence": "AGAGATCT", "PBM E-score": -0.0264}
{"sequence": "GAACCGTC", "PBM E-score": 0.0624}
{"sequence": "GAGTTACC", "PBM E-score": -0.157}
{"sequence": "ACGGTTCA", "PBM E-score": -0.186}
{"sequence": "CAGAGCTC", "PBM E-score": -0.223}
{"sequence": "GCGCGACA", "PBM E-score": 0.173}
{"sequence": "GCACCAAC", "PBM E-score": -0.122}
{"sequence": "CAGCATAC", "PBM E-score": -0.0358}
{"sequence": "CCCCACTA", "PBM E-score": -0.0573}
{"sequence": "AGACGCGG", "PBM E-score": 0.0721}
{"sequence": "GGGAATGA", "PBM E-score": 0.228}
{"sequence": "GAGGTGCC", "PBM E-score": -0.141}
{"sequence": "GCCACTTA", "PBM E-score": -0.174}
{"sequence": "TACGACTA", "PBM E-score": -0.143}
{"sequence": "ATCTATTG", "PBM E-score": 0.102}
{"sequence": "CCCGTGCG", "PBM E-score": -0.0378}
{"sequence": "GGCTAGCA", "PBM E-score": -0.0527}
{"sequence": "ACCAGATC", "PBM E-score": 0.0912}
{"sequence": "CATGACCA", "PBM E-score": -0.0804}
{"sequence": "ATAATCAT", "PBM E-score": 0.185}
{"sequence": "CTATGCGA", "PBM E-score": 0.00611}
{"sequence": "CCTTGAGA", "PBM E-score": -0.0427}
{"sequence": "AACTTAAT", "PBM E-score": 0.169}
{"sequence": "ACATAGTA", "PBM E-score": 0.118}
{"sequence": "AACATATG", "PBM E-score": 0.114}
{"sequence": "AGGGTAAA", "PBM E-score": 0.165}
{"sequence": "CCAATCAA", "PBM E-score": -0.0271}
{"sequence": "AAGGCGGC", "PBM E-score": -0.0929}
{"sequence": "AGGGCAAT", "PBM E-score": -0.123}
{"sequence": "AAGGAAAA", "PBM E-score": 0.164}
{"sequence": "CCAGTATC", "PBM E-score": 0.0407}
{"sequence": "GAGTGTAA", "PBM E-score": 0.127}
{"sequence": "AGGGAACC", "PBM E-score": -0.111}
{"sequence": "CGATCCTA", "PBM E-score": -0.027}
{"sequence": "GAGCTCGC", "PBM E-score": -0.0349}
{"sequence": "ACAACGCG", "PBM E-score": 0.12}
{"sequence": "AAGCACCC", "PBM E-score": -0.204}
{"sequence": "CACGGTTC", "PBM E-score": -0.204}
